Paper PMC4336329 (PLoS ONE, 2015)
Among all 310,000 compounds or so, about 2,200 (0.71%) showed an effect of 50% or more. Effects have a minus sign here. The list shows a part of the results.

These compounds were tested against human ether-à-go-go-related gene (hERG) potassium channel (human, UniProt Q12809) (assay: primary screen, population patch clamp on CHO cells stably expressing hERG).
Sequence of human ether-à-go-go-related gene (hERG) potassium channel (Q12809 whole entry, looked up): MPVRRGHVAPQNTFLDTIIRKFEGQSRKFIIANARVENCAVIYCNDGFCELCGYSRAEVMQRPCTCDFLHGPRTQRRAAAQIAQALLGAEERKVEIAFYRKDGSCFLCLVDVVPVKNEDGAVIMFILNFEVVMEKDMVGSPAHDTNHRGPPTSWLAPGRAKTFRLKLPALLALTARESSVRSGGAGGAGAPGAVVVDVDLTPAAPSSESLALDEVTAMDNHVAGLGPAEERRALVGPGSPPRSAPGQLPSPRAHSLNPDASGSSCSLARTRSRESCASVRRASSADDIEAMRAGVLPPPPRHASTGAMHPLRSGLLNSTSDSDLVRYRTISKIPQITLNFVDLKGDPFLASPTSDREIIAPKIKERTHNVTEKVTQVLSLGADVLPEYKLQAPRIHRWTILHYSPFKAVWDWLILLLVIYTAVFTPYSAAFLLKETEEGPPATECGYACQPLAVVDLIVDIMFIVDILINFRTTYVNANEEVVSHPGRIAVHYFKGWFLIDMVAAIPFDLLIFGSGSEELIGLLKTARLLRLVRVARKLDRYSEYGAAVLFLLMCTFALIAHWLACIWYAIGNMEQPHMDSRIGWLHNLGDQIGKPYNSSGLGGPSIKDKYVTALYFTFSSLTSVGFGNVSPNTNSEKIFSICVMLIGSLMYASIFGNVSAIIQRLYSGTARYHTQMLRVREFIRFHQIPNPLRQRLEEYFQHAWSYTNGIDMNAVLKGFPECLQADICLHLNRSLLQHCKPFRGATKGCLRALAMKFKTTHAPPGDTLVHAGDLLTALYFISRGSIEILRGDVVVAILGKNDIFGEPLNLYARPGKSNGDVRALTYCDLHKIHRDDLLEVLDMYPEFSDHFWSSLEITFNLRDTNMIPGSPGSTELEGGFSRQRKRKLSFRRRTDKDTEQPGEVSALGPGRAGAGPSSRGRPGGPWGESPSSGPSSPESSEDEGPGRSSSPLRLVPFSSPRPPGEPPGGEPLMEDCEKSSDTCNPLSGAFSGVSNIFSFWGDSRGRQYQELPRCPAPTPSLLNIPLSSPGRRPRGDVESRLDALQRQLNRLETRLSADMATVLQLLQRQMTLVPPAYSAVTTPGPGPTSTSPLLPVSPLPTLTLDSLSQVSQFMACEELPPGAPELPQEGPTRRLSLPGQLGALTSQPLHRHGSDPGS

| Structure (SMILES) | hERG current change (%, negative = inhibition) at 1uM |
| --- | --- |
| COc1ccc(N2CCN(C(=O)CC(NC(N)=O)c3cccc(Oc4ccccc4)c3)CC2)cc1 (stereo not shown) | 0.067% |
| Clc1ccc(C2=Nn3c(nnc3-c3n[nH]c4c3CCC4)SC2)cc1 | 11% |
| Cc1cc2cc(CNC(=O)c3cccc([N+](=O)[O-])c3)ccc2[nH]1 | 1.47% |
| CCOC(=O)C/C(N)=N/NC(=O)c1ccc(Cl)cc1Cl | 9.3% |
| CC(OC(=O)C1=COCCO1)C(=O)Nc1ccc(Oc2ccccc2)cc1 (stereo not shown) | -6.24% |
| COc1ccc(-c2cc(C(F)(F)F)c(C#N)c(SCC(=O)O)n2)cc1OC | 14.2% |
| COc1ccc(C(=O)Nc2ccccc2N2CCCCC2)cc1[N+](=O)[O-] | -0.782% |
| CC(=O)Nc1c(C)nn(C(C)=O)c1C | 11.8% |
| Cc1ccc(OCC(=O)OCC(=O)NC2CC2)cc1C | 2.95% |
| COc1cc(OC)c(C(=O)COc2ncnc3ccccc23)c(OC)c1 | 2.94% |
| O=C(CSc1ccccc1)N1CCN(c2ccccc2)CC1 | -11.1% |
| O=C(CSc1nnc(-c2cccs2)o1)OCc1ccccc1 | 7.64% |
| CC(=O)N1CCN(c2ccc(NC(=O)c3cccc(C)c3)cc2)CC1 | 21.7% |
| Cc1cc(C)cc(OCCNC(=O)c2cc(S(=O)(=O)N3CCOCC3)ccc2F)c1 | -8.97% |
| CC1(C)Cc2ccccc2-c2nc3n(c(=O)c21)CCCS3 | 8.51% |
| Brc1ccccc1-c1nnc(COc2ncnc3ccccc23)o1 | 10% |
| CCCN1C(=O)c2ccc(C(=O)NC3=NCCS3)cc2C1=O | 4.29% |
| Cc1cccc(N(CC(=O)NC2CCCCC2)C(=O)c2csnn2)c1 | 9.5% |
| CCOC(=O)C1C(=O)NC(N2CCOCC2)=NC1C(C)C (stereo not shown) | 9.84% |
| CS(=O)(=O)c1ccc(NCCc2ccc(S(N)(=O)=O)cc2)c([N+](=O)[O-])c1 | 4.03% |
| CC(=O)c1c(C)n([O-])c2cc(C)ccc2[n+]1=O | 3.04% |
| Cn1c(=O)n(C)c(=O)n(CC(=O)N2CCCCC2)c1=O | -2.91% |

| Structure (SMILES) | hERG current change (%, negative = inhibition) at 1uM |
| --- | --- |
| CCOc1ccccc1NC(=O)Nc1cc(S(=O)(=O)N(C)C)ccc1C | 14.8% |
| Cn1c(CN2CCOCC2)nc2cc(NC(=O)COc3ccc([N+](=O)[O-])cc3)ccc21 | 4.05% |
| Nc1nc(-c2ccco2)nn1S(=O)(=O)c1ccc(Cl)cc1 | 12% |
| Cc1ccc(/C=N/NC(=O)CC2N=C(Cc3ccccc3)NNC2=O)cc1 (stereo not shown) | 19.2% |
| CN(C)C(=O)Oc1ccc(-c2cn3cc(C(F)(F)F)ccc3n2)cc1 | 8.25% |
| CN(c1ccccc1)c1nc(N)c([N+](=O)[O-])c(Nc2cccc(F)c2)n1 | 15.4% |
| COc1ccc(CC2S/C(=N/N=C/c3ccccc3O)NC2=O)cc1 (stereo not shown) | 13.2% |
| O=C(O)c1ccccc1CSc1nnnn1-c1ccccc1 | 8.11% |
| CCOC(=O)c1c(NC(=O)CC)sc(C(=O)NC2CCCC2)c1C | 8.31% |
| CCc1ccc(CN2CCCC(CNS(=O)(=O)c3ccc(OC)cc3)C2)cc1 (stereo not shown) | -13.4% |
| CN(C)S(=O)(=O)c1cccc(NC(=O)c2cnccn2)c1 | 7.92% |
| Cc1nc(N2CCN(S(=O)(=O)c3cccc4nonc34)CC2)c2c3c(sc2n1)CCCC3 | 1.79% |
| CN(CC1CCCN(CCc2ccc(Cl)cc2)C1)C(=O)CC(F)(F)F (stereo not shown) | -38% |
| CCN1CSC(=S)N(Cc2ccc(OC)cc2)C1 | 18.9% |
| Cc1ccc(C(=O)NCCOc2cccc(C)c2)cc1 | 12.7% |
| Cc1nc2cc(NC(=O)N3CCC(c4ccccc4)C3)ccc2n1C (stereo not shown) | -23.2% |
| Cc1ccc(NC(=O)CN2C(=O)NC(C)(C3CC3)C2=O)c(C)c1 (stereo not shown) | 9.13% |
| CC(=O)c1ccc(NC(=S)NNC(=O)c2ccccc2[N+](=O)[O-])cc1 | 13.4% |
| O=C1C2CCCC1C([NH+]1CCCC1)CC2.[Cl-] (stereo not shown) | 6.99% |
| CC(=O)Nc1ccc(S(=O)(=O)N2CCN(c3nc4ccccc4n3CC(C)C)CC2)cc1 | 7.44% |
| CCCN(CCC)S(=O)(=O)c1ccc(C(=O)Nc2ccc(OCC(=O)N3CCOCC3)cc2)cc1 | 3.94% |
| COc1ccccc1-n1cnc2sc(-c3ccccc3)cc2c1=O | 12.5% |

| Structure (SMILES) | hERG current change (%, negative = inhibition) at 1uM |
| --- | --- |
| O=C(CN1C(=O)NC2(CCOc3ccccc32)C1=O)c1ccc(F)cc1 (stereo not shown) | 3.75% |
| COCCSc1ccccc1C(=O)N1CCN(Cc2ccc3c(c2)OCO3)CC1 | 11.2% |
| Cc1cc(C)c(C)c(S(=O)(=O)N2CCN(C(=O)c3ccccc3OCc3c(C)noc3C)CC2)c1C | 4.34% |
| Cc1ccc(C(=O)N/C(=C/c2ccc(-c3ccc([N+](=O)[O-])cc3)o2)C(=O)NCCCN(C)C)cc1 | -78% |
| CCC(C)(C)c1ccc(Oc2ccc(NC(=O)COC(=O)C3=COCCO3)cc2)cc1 | 11.3% |
| COc1ccc(C(N)=O)cc1NC(=O)c1cccc(F)c1 | 8.83% |
| Cc1cc(C)c(C)c(S(=O)(=O)N2CCC(C(=O)N3CCCCCCC3)CC2)c1C | 8.69% |
| CCN(C(=O)COC(=O)c1cc(S(=O)(=O)N2CCOCC2)ccc1F)C1CCS(=O)(=O)C1 (stereo not shown) | 14.4% |
| Cc1cc(NC(=O)c2ccccc2Cl)c(C(C)C)cc1O | 4.82% |
| COc1ccc(-n2c(C)nnc2SCC(=O)Nc2ccccc2F)cc1 | 10.9% |
| COc1cc(/C=C(\C#N)C(=O)N2CCOCC2)ccc1OCc1ccccc1 | 18.5% |
| O=C(O)CSc1c2c(nc3cc(C(=O)Nc4cccc(C(F)(F)F)c4)ccc13)CCCC2 | 7.39% |
| COc1ccc(-n2nnnc2SCC(=O)Nc2cccc(C)n2)cc1OC | 2.36% |
| CCOc1ccc(NC(=O)CN(C)C(=O)CSCc2ccc(C)cc2)cc1OCC | -1.27% |
| Cc1nc2ccc(-n3ccc(=O)cc3)cc2s1 | 17.5% |
| CCOC(=O)c1[nH]ncc1[C@@H]1C[C@H]2CN(Cc3cccc(Cl)c3)C(=O)[C@]23CCCN13 | 4.37% |
| Cc1ccn2c(NC3CCCC3)c(-c3cccs3)nc2c1.Cl | 11.1% |
| COc1cc(-c2[nH]nc3c2C(c2ccoc2)C(C#N)=C(N)O3)cc(OC)c1OC (stereo not shown) | -4.5% |
| Cl.NN=C(N)N | 6.64% |
| O=C(Nc1ccc(Oc2ccc(Cl)cc2)cc1)c1ncn[nH]1 | 2.59% |
| CC(=O)N(C(C)=O)N1C(=O)C2C3c4ccccc4C(c4ccccc43)C2C1=O (stereo not shown) | 5.65% |
| COCCCNC(=S)NNC(=O)c1cc(-c2ccncc2)nc2ccccc12 | 6.61% |

| Structure (SMILES) | hERG current change (%, negative = inhibition) at 1uM |
| --- | --- |
| C=CCc1cc(Cl)ccc1OCCNCCN1CCOCC1.O=C(O)C(=O)O | 5.59% |
| CCN(CC)C(=O)c1cccc2nc3ccccc3nc12 | 12.7% |
| O=C(NC1CCCC1)c1ccc(CSc2nc3ccncc3n2Cc2ccc(F)cc2)cc1 | 3.86% |
| COc1ccc(C)cc1NC(=O)CSc1nnc(COc2ccccc2)n1Cc1ccco1 | 7.89% |
| C[C@H](NC(=O)c1ccco1)C(=O)NCc1cccs1 | 9.92% |
| CCN(C(=O)c1ccc(Br)cc1)c1ccccc1 | -1.75% |
| CCOc1ccccc1N1CN(C2CCCCC2)CNC1=S | 11.8% |
| O=C1CCCC2=C1C1(O)C(=O)c3ccccc3C1(O)O2 (stereo not shown) | 5.1% |
| C/C(=N/NS(=O)(=O)c1ccc(C)cc1)c1c(O)c2ccccc2oc1=O | 9.02% |
| Cc1ccccc1S(=O)(=O)Cc1ccc(C(=O)N(C)C2CCCCC2)o1 | 12.1% |
| O=C(CN1CCN(Cc2ccccc2Cl)CC1)N=Nc1c(O)[nH]c2ccccc12 | -5.17% |
| CCn1c(=O)c(C(=O)NCc2ccccc2OC)c(O)c2ccccc21 | 13.4% |
| Cc1cc2c(c(SCC(=O)Nc3ccc(C)c(C)c3)n1)C(=O)OC2 | 12.1% |
| COc1ccc(C(=O)Nc2cc(=O)n(C)c(=O)n2C)cc1OC | 20% |
| COc1ccc(NC(=O)Nc2ccccc2C(N)=O)cc1 | 14.6% |
| C/C=C/C(=O)OCC(=O)Nc1ccc(OC)c(Cl)c1 | 11.2% |
| Cc1cccc(N(Cc2cc3ccccc3[nH]c2=O)C(=O)c2cccs2)c1 | 16.4% |
| O=C(COC(=O)C12CC3CC(CC(C3)C1)C2)Nc1nc2c(F)c(F)c(F)cc2s1 | 18.5% |
| O=C1c2cccc3c(N4CCCCC4)ccc(c23)C(=O)N1c1ccccc1O | 8.39% |
| COc1cc(NC(=O)NC(C)(C(F)(F)F)C(F)(F)F)cc(OC)c1OC | 11.7% |
| O=C(O)CCCCNS(=O)(=O)/C=C/c1ccccc1 | 13% |
| O=C(O)c1ccc(-[n+]2c(-c3ccccc3)cc(-c3ccccc3)cc2-c2ccccc2)cc1.[O-][Cl+3]([O-])([O-])[O-] | 15.1% |
